This is one part of the list. The energies were worked out here from pooled read counts, against the library average; single values are noisy.
Target: T1, Pho4 (S. cerevisiae) (UniProt P07270)
T1 sequence: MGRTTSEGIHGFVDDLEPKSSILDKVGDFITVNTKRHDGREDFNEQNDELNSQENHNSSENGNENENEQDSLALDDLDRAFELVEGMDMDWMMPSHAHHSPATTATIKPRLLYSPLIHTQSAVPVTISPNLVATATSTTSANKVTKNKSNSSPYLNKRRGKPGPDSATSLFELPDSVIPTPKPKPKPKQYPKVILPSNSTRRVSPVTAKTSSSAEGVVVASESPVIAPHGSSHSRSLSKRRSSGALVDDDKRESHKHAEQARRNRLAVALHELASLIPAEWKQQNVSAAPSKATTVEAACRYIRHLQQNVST
Experiment: relative binding free energy (BET-seq); higher = weaker binding
Details: reference: library average

| Sequence | relative binding free energy [kcal/mol] |
| --- | --- |
| GCGGTCACGTGTGAGT | 0.16 |
| CGGGCCACGTGGGCGG | -0.31 |
| CATGTCACGTGAGTTG | 0.28 |
| GGTGGCACGTGAACAG | 0.25 |
| TGTGTCACGTGTTTGA | 0.03 |
| GGTGTCACGTGTAATA | 0.31 |
| TCGGTCACGTGAAGTT | 0.33 |
| TAAATCACGTGCGTGT | 0.07 |
| CGTTACACGTGTTTTG | 0.01 |
| TTTTACACGTGTGGGA | 0.17 |
| ATGGTCACGTGGATGT | 0.12 |
| TGGGTCACGTGTAAAA | 0.21 |
| ATTTGCACGTGTGCCG | 0.04 |
| TGCCTCACGTGTAGGT | 0.16 |
| GGGGGCACGTGTTCGA | 0.02 |
| AGATTCACGTGATATG | 0.3 |
| TATGGCACGTGGCTGG | -0.1 |
| TTGGGCACGTGTAGAG | 0.03 |
| TGTGTCACGTGCGTTT | -0.04 |
| TCTTTCACGTGTTTCG | 0.33 |
| ATAGGCACGTGTTGCA | -0.1 |
| ATGGACACGTGGTTCG | -0.14 |
| TGGTACACGTGTGGTA | 0.11 |

| Sequence | relative binding free energy [kcal/mol] |
| --- | --- |
| TGCTTCACGTGTGTGA | 0.09 |
| TGTGTCACGTGAATCA | 0.21 |
| GCTCTCACGTGTTGTG | 0.21 |
| TATGGCACGTGTGCAA | -0.09 |
| CGAGCCACGTGTGGTG | -0.05 |
| TATAACACGTGGAGGG | -0.15 |
| TTAGTCACGTGACAAG | 0.26 |
| CGTGGCACGTGTATTT | 0.03 |
| TAGCGCACGTGTGTTG | -0.08 |
| AAGGCCACGTGATGTG | 0.07 |
| TAGAACACGTGGTTTG | -0.01 |
| TTATTCACGTGACATG | 0.16 |
| CTAGGCACGTGGGGGG | -0.29 |
| TAGGACACGTGTATTG | -0.04 |
| ATGTTCACGTGTGTCG | 0.28 |
| AGCTGCACGTGATTTG | 0.08 |
| GTGTACACGTGGGTAC | -0.12 |
| GGGGACACGTGTCAGG | -0.04 |
| AAGGGCACGTGGCAAG | -0.22 |
| ATTTGCACGTGCGAGG | -0.07 |
| TCAAGCACGTGTGCGG | -0.04 |
| TGCGGCACGTGAGGAG | 0.21 |
| GGAATCACGTGCGTTA | 0.24 |

| Sequence | relative binding free energy [kcal/mol] |
| --- | --- |
| AATGACACGTGAAAGG | 0.4 |
| AAGTTCACGTGTCAGT | 0.32 |
| GTCGGCACGTGGGCAT | -0.03 |
| ATGCTCACGTGTGTTG | 0.04 |
| TGGGACACGTGTATTT | 0.03 |
| TGTCACACGTGTGCGT | 0.01 |
| TTCGGCACGTGAATGG | 0.16 |
| TTATACACGTGTGGGT | -0.03 |
| TTGTACACGTGGGTTA | -0.09 |
| AGGAGCACGTGGTGAT | -0.14 |
| GTGGACACGTGTTGTA | -0.04 |
| AGGTTCACGTGGAATT | 0.38 |
| AGCGACACGTGAGTGG | 0.18 |
| ACGGGCACGTGCGTTG | -0.2 |
| GGCGACACGTGGATGT | 0.17 |
| TGAGGCACGTGGATGC | -0.02 |
| GTTTTCACGTGGGGTT | 0.13 |
| TTCTGCACGTGCTGGG | 0.03 |
| GGGCACACGTGCAGGG | 0.04 |
| TGTTGCACGTGTAGCG | 0.14 |
| CGGTACACGTGTCGGG | 0.11 |
| AGGCGCACGTGGTGCG | -0.13 |
| GTGGACACGTGGCGTT | 0.01 |

| Sequence | relative binding free energy [kcal/mol] |
| --- | --- |
| TTCTTCACGTGTGGGG | 0.32 |
| GTGGTCACGTGGTATC | -0.02 |
| ATGGGCACGTGAATGA | 0.21 |
| GTTGTCACGTGATAGG | 0.25 |
| CGGTGCACGTGAGGTA | 0.21 |
| AGGTCCACGTGTAGGT | 0.04 |
| AGAGGCACGTGTTTTT | 0 |
| CTTGGCACGTGTTGAG | -0.1 |
| CTCAGCACGTGTTGGT | 0.08 |
| TCTGTCACGTGGTGAG | -0.1 |
| AGCAGCACGTGGGGTC | -0.24 |
| ACAGGCACGTGGTGTG | -0.23 |
| GGTTTCACGTGCGTCG | 0.35 |
| GTTTTCACGTGAGTCT | 0.36 |
| GAAGGCACGTGAGGTG | 0.11 |
| GAGTGCACGTGTGCCG | 0.1 |
| TGTGACACGTGCAGGC | 0.01 |
| ACGTTCACGTGTTTGG | 0.23 |
| AGATACACGTGTGGCG | 0.07 |
| TAGGGCACGTGCGGCG | -0.2 |
| TGGAACACGTGATGTG | 0.19 |
| AAAGGCACGTGAATTT | 0.19 |
| GAGTTCACGTGAGGTA | 0.5 |

| Sequence | relative binding free energy [kcal/mol] |
| --- | --- |
| CTGTGCACGTGTAGGA | -0.15 |
| TGTCACACGTGTGTTA | 0.04 |
| AGATGCACGTGGTGAG | -0.1 |
| GTGTACACGTGATAGT | 0.04 |
| AAGTGCACGTGGTGTG | -0.19 |
| CTGGCCACGTGGCGTG | -0.11 |
| TCGGGCACGTGGTACG | -0.23 |
| CTGCGCACGTGTTTTG | 0.03 |
| AGTTTCACGTGCACGT | 0.16 |
| GGGCGCACGTGCGGAG | -0.17 |
| AGTGGCACGTGCGGTC | -0.15 |
| GTCGGCACGTGGGGCC | -0.08 |
| AGGAACACGTGTGAGG | -0.07 |
| GGATACACGTGTAGGG | -0.04 |
| AGGGACACGTGGGGTT | -0.02 |
| GGAGGCACGTGAAGGT | 0.2 |
| GTGTCCACGTGATATG | 0.08 |
| TATTGCACGTGAGCAT | 0.17 |
| TATGTCACGTGTTACA | 0.09 |
| GGTTGCACGTGAGCAG | 0.26 |
| TAGGCCACGTGTGAGG | -0.07 |
| ATGCGCACGTGTGTGT | -0.08 |
| TATGACACGTGTCAGG | 0.03 |

— the BET-seq Pho4 binding data (Le et al. 2018)
